# In the supplement of paper PMC5919970:
# Several values for one entry are separate records, joined by “and”; a condition that tells them apart may be missing. Equal values may be shown once. Where a name gives a salt, the structure may show the parent alone. Whole data set: some 2,000 compounds, median “fractional viability relative to vehicle” near 0.92, cut for the lowest 2% near 0.11. The list shows a part of the results.
# System: TYKNU
# Assay: fractional viability relative to vehicle; TYKNU is a high-grade serous ovarian cancer line; higher = less growth inhibition
# Details: 72 h, genotype: OPA1 knockout (sgOPA1 #2)
# Method in brief: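 TYKNU control cells or lentiCRISPRv2 knockout derivatives were plated at 500 cells per well in duplicate into drug-stamped 384-well plates holding a ~2100-compound library at 2 or 10 μM. Culture was in RPMI 1640 with 10% FBS at 37 °C in 5% CO2, with 72 h of drug treatment. Viability was measured by Cell Titer Glo luminescence, and the averaged duplicate treatment wells were normalised to duplicate control wells at the same plate position.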
SMILES,fractional viability (2uM),fractional viability (10uM)
COCC[n+]1c2c(n(Cc3cnccn3)c1C)C(=O)c1ccccc1C2=O [YM155 (Sepantronium Bromide)],0.06,0.0555
O=S(=O)(O)NC1CCCCC1 [Cyclamic  acid],1.03,0.99
C#CC[C@H](c1nc2cc(Cl)ccc2c(=O)n1Nc1ccccc1)N(CCCN)C(=O)c1cccc(Cl)c1F,0.562,0.0443
C[C@@H]1CCN(C(=O)CC#N)C[C@@H]1N(C)c1ncnc2[nH]ccc12,0.867 and 0.972,1.07 and 1.17
Cc1cc2c(F)c(Oc3ncnn4cc(OC[C@@H](C)OC(=O)[C@H](C)N)c(C)c34)ccc2[nH]1,0.88,0.627
CCOC(=O)Nc1cc(-c2ccc(C)c(NS(C)(=O)=O)c2)nn2c(C)nnc12 [Bromosporine],0.92,0.534
Cc1ccc(Cl)c(Nc2ccccc2C(=O)O)c1Cl [Meclofenamate Sodium],0.888,0.932
O=C(NCCO[N+](=O)[O-])c1cccnc1 [Nicorandil],0.904,1
CN(C)CCOc1ccc(/C(=C(/CCCl)c2ccccc2)c2ccccc2)cc1 [Toremifene Citrate],1.22,0.875
CC(C)(Cc1ccc2ccccc2c1)NC[C@@H](O)COc1cccc(Cl)c1C#N,1.06,0.0653
O=C(c1cn(Cc2cncn2Cc2ccc(Br)cc2)cc1-c1cccc2ccccc12)N1CCOCC1,0.52,0.426
CCN1CCN(C(=O)N[C@@H](C(=O)N[C@@H]2C(=O)N3C(C(=O)O)=C(CSc4nnnn4C)CS[C@H]23)c2ccc(O)cc2)C(=O)C1=O [Cefoperazone],1.2,0.922
COc1cc(O)c(CC=C(C)C)c(O)c1C(=O)/C=C/c1ccc(O)cc1 [Xanthohumol],0.841,0.772
Cc1cc(/N=N/c2ccc(S(=O)(=O)Nc3ccccn3)cc2)c(N)cc1O,0.89,0.64
Oc1ccc(OCc2ccccc2)cc1 [Monobenzone],1.01,0.909
C[C@H]1C[C@H]2[C@@H]3CCC4=CC(=O)C=C[C@]4(C)[C@@]3(F)[C@@H](O)C[C@]2(C)[C@@]1(O)C(=O)CO [Betamethasone],1.12,1.2
O=C(O)/C=C/c1ccc(Cn2ccnc2)cc1 [Ozagrel],0.951,0.914

SMILES,fractional viability (2uM),fractional viability (10uM)
O=C(O)/C=C/c1ccc(Cn2ccnc2)cc1 [Ozagrel HCl],1.14,1.01
COc1cc2nccc(Oc3ccc(NC(=O)C4(C(=O)Nc5ccc(F)cc5)CC4)cc3)c2cc1OC,1.43,1.01
CNC(=O)c1cc(COc2nnc(Nc3ccc(Cl)cc3)c3ccoc23)ccn1 [Telatinib],0.834,0.653
CCCc1nc(C)c2c(=O)nc(-c3cc(S(=O)(=O)N4CCN(CC)CC4)ccc3OCC)[nH]n12 [Vardenafil HCl Trihydrate],1.02,0.915
Cc1cc(C)cc(C(=O)NOCCCCCC(=O)NO)c1,0.355,0.188
O=c1c(-c2ccc(O)cc2)coc2c([C@@H]3O[C@H](CO)[C@@H](O)[C@H](O)[C@H]3O)c(O)ccc12 [Puerarin],1.08,1.06
CCOc1nc2cccc(C(=O)O)c2n1Cc1ccc(-c2ccccc2-c2noc(=O)[nH]2)cc1 [Azilsartan],0.997,1.12
COCCOC(=O)C1=C(C)NC(C)=C(C(=O)OC/C=C/c2ccccc2)C1c1cccc([N+](=O)[O-])c1 (stereo not drawn) [Cilnidipine],1.09,0.851
Cc1cc([C@@H](C)Nc2ccccc2C(=O)O)c2nc(N3CCOCC3)cc(=O)n2c1,1.12,1.16
Cc1cnc(NC(=O)C2=C(O)c3ccccc3S(=O)(=O)N2C)s1 [Meloxicam],1.18,1.33
O=C(O)CCCc1ccccc1 [Sodium Phenylbutyrate],0.906,0.793
CC1(C)O[C@@H]2C[C@H]3[C@@H]4CCC5=CC(=O)C=C[C@]5(C)[C@@]4(F)[C@@H](O)C[C@]3(C)[C@]2(C(=O)CO)O1 [Triamcinolone Acetonide],0.992,1.02
C[C@@H]1C[C@H]2[C@@H]3CCC4=CC(=O)C=C[C@]4(C)[C@@]3(F)[C@@H](O)C[C@]2(C)[C@@]1(O)C(=O)CO [Dexamethasone (DHAP)],1.03,1.09
OC1(c2ccc(Cl)c(C(F)(F)F)c2)CCN(CCCC(c2ccc(F)cc2)c2ccc(F)cc2)CC1 [Penfluridol],0.625,0.178
CC(C)Oc1ccc(C(=O)N[C@H](CNC(=O)CN(C)C)Cc2ccc(-c3cn4cccc([C@H](C)O)c4n3)cc2)cc1Cl,0.78,0.703
Cc1nnc(NS(=O)(=O)c2ccc(N)cc2)s1 [Sulfamethizole],1.13,1.01
FC(F)c1nc2ccccc2n1-c1nc(N2CCOCC2)nc(N2CCOCC2)n1,1.18,0.638
